Reference: the supplement of paper PMC10126150
Sequences with one replicate were seen in a single cluster, so their values are uncertain.
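Also: ATP exposure 15 min at 22 °C before imaging.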

These sequences were tested on ATP (assay: switch fluorescence ratio, 500 uM ATP over buffer (Cy3 cluster intensity, sum of 5 cycles each) (fold (ratio)); higher = stronger signal-on switching upon ATP binding; sequences stand for … in TCGTCGGCAGCGTCAGATGTGTATAAGAGACAGTTTTTTTTTTTTTTTTTTTTTTTTT…TC). Conditions: aptamer strand: ATP DNA aptamer (quencher-CACCTGGGGGAGTATTGCGGAGGAAGG + anchor), 100 nM annealed; ATP concentration: 500 uM; one replicate.
Method in brief: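 Values give the fluorescence ratio for each switch-domain sequence, averaged from per-cluster ratios of summed target-cycle to summed buffer-cycle Cy3 intensity. The Cy3-labelled switching-strand clusters sat on a modified Illumina MiSeq flow-cell, were annealed to 100 nM quencher-labelled ATP aptamer, and were imaged in selection buffer, then after 15 min with 500 uM ATP at 22 °C. Five cycles ran with NaOH stripping and re-annealing between them, and clusters outside 100-1000 RFU were excluded.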
TAATGTCGGC showed a switch fluorescence ratio of 1.04. TAATTCATAT was tested, and the switch fluorescence ratio was 0.988. TAATTCGCTG showed a switch fluorescence ratio of 1.04. TAATTGAGTT was tested, and the switch fluorescence ratio was 0.979. Sequence TAATTGGCCT has a switch fluorescence ratio of 1.02. In the case of TAATTGGCGA, the switch fluorescence ratio is reported as 1.03. TAATTTAATG was tested, and the switch fluorescence ratio was 1.05. Work on TAATTTACC yielded a switch fluorescence ratio of 1.07. TACAACCCTG was tested, and the switch fluorescence ratio was 1.02. TACAACGCCT gave a switch fluorescence ratio of 1.14. In the case of TACAACTGTA, the switch fluorescence ratio is reported as 1.01. TACAAGGGGG was tested, and the switch fluorescence ratio was 1.04. Work on TACAATAGAC yielded a switch fluorescence ratio of 1.06. TACAATATCA gave a switch fluorescence ratio of 1.02. TACACATTCG was tested, and the switch fluorescence ratio was 0.978. TACACCGGGA showed a switch fluorescence ratio of 1.16. TACACTGTTG gave a switch fluorescence ratio of 1.03. Work on TACAGCCGAT yielded a switch fluorescence ratio of 1.08. TACAGCCTAT showed a switch fluorescence ratio of 0.992. TACAGGTCTA showed a switch fluorescence ratio of 0.959. TACAGTGGCG was tested, and the switch fluorescence ratio was 0.988. Work on TACAGTGGGC yielded a switch fluorescence ratio of 0.927. For TACAGTTACG, the switch fluorescence ratio was 1.3. With TACATATACA the switch fluorescence ratio was 1.1. For TACATCATAA, the switch fluorescence ratio was 1.02. TACATCGGTC showed a switch fluorescence ratio of 1. Work on TACATGTACT yielded a switch fluorescence ratio of 1.12. TACATGTCCT gave a switch fluorescence ratio of 1.05. Sequence TACATGTTTC has a switch fluorescence ratio of 1. With TACATTGTAC the switch fluorescence ratio was 1.14. With TACCACGAGC the switch fluorescence ratio was 1.03. TACCACTTGC showed a switch fluorescence ratio of 1.03. With TACCAGTTGT the switch fluorescence ratio was 1.05. With TACCCAAATA the switch fluorescence ratio was 1.05. TACCCCACGA showed a switch fluorescence ratio of 1.42. In the case of TACCCCCTGG, the switch fluorescence ratio is reported as 1.11. TACCCGGGCG was tested, and the switch fluorescence ratio was 1.01. TACCGGAAG gave a switch fluorescence ratio of 1.1. TACCGGTGGA showed a switch fluorescence ratio of 1.02. For TACCGGTTAC, the switch fluorescence ratio was 1.21. With TACCGTACGG the switch fluorescence ratio was 1.04. Sequence TACCGTCATT has a switch fluorescence ratio of 1. TACCGTGGGA was tested, and the switch fluorescence ratio was 1.05. TACCGTTTGT showed a switch fluorescence ratio of 1.04. Sequence TACCTAATTT has a switch fluorescence ratio of 0.986. TACCTACACA was tested, and the switch fluorescence ratio was 1.19. Work on TACCTCGTAG yielded a switch fluorescence ratio of 1.01. Work on TACCTCTGGT yielded a switch fluorescence ratio of 0.991. With TACCTGACGG the switch fluorescence ratio was 1.42. Sequence TACCTTCGA has a switch fluorescence ratio of 1.25. Work on TACCTTGGAC yielded a switch fluorescence ratio of 1.07. In the case of TACGAACGGT, the switch fluorescence ratio is reported as 1.2. TACGAAGGCC gave a switch fluorescence ratio of 1.08. With TACGAAGGTG the switch fluorescence ratio was 1.23. In the case of TACGACCCCC, the switch fluorescence ratio is reported as 2.9. TACGACCGCG was tested, and the switch fluorescence ratio was 1.13. Sequence TACGACGAAA has a switch fluorescence ratio of 4.51. TACGACGACA gave a switch fluorescence ratio of 1.76. TACGAGATCA was tested, and the switch fluorescence ratio was 1.02. TACGAGGCGC was tested, and the switch fluorescence ratio was 1.22. TACGATCATG was tested, and the switch fluorescence ratio was 1.01. For TACGCAGCTA, the switch fluorescence ratio was 3.89. With TACGCCGTAT the switch fluorescence ratio was 1.13. TACGCCTATA gave a switch fluorescence ratio of 1.05. Sequence TACGCGACTT has a switch fluorescence ratio of 1.16. Sequence TACGCGGCC has a switch fluorescence ratio of 1.26. With TACGCGGGCC the switch fluorescence ratio was 1.02. With TACGCGTAGT the switch fluorescence ratio was 0.998. In the case of TACGCGTGTT, the switch fluorescence ratio is reported as 1.01. With TACGCTGGAA the switch fluorescence ratio was 0.987. For TACGCTGGTC, the switch fluorescence ratio was 1.1. Work on TACGCTTGTG yielded a switch fluorescence ratio of 0.995. For TACGGAAAC, the switch fluorescence ratio was 4.28. For TACGGAAATT, the switch fluorescence ratio was 0.993. Work on TACGGAACGT yielded a switch fluorescence ratio of 1.04. TACGGACCGG gave a switch fluorescence ratio of 1.1. TACGGCAGAC was tested, and the switch fluorescence ratio was 1.85. TACGGCCGTG was tested, and the switch fluorescence ratio was 1.01. Work on TACGGCTCAG yielded a switch fluorescence ratio of 1.03. Sequence TACGGCTTGC has a switch fluorescence ratio of 1.06. In the case of TACGGGACAA, the switch fluorescence ratio is reported as 1.16. Work on TACGGGGATT yielded a switch fluorescence ratio of 1. Sequence TACGGGGTTG has a switch fluorescence ratio of 1.04. For TACGGGTTAA, the switch fluorescence ratio was 1.03. TACGGGTTGC showed a switch fluorescence ratio of 1. With TACGGTGTTA the switch fluorescence ratio was 1.07. In the case of TACGGTTCAC, the switch fluorescence ratio is reported as 1.11. With TACGGTTTTA the switch fluorescence ratio was 0.964. Sequence TACGTAGTTC has a switch fluorescence ratio of 1.04. For TACGTGCCAC, the switch fluorescence ratio was 1.1. TACGTGGGCG gave a switch fluorescence ratio of 0.917. With TACTACAGAT the switch fluorescence ratio was 1.02. Sequence TACTAGGGCT has a switch fluorescence ratio of 1.04. With TACTATCAGT the switch fluorescence ratio was 0.97. Sequence TACTCAAACG has a switch fluorescence ratio of 0.962. TACTCGACTT gave a switch fluorescence ratio of 1.11. TACTCGGGTC was tested, and the switch fluorescence ratio was 1.02. With TACTCTCGAA the switch fluorescence ratio was 1.02. Sequence TACTCTTTCG has a switch fluorescence ratio of 1.05. Sequence TACTGCAGGG has a switch fluorescence ratio of 1. Sequence TACTGCGGGC has a switch fluorescence ratio of 1.14. Work on TACTGGCAAC yielded a switch fluorescence ratio of 1.16. TACTGGCTCA showed a switch fluorescence ratio of 1.04. TACTGGGAT showed a switch fluorescence ratio of 1.02. With TACTGTCCC the switch fluorescence ratio was 1.1. Work on TACTTAGTCA yielded a switch fluorescence ratio of 0.998. In the case of TACTTCAAAA, the switch fluorescence ratio is reported as 1.04. In the case of TACTTCCCGT, the switch fluorescence ratio is reported as 1.18. With TACTTCCGGA the switch fluorescence ratio was 1.08. TACTTGCTAA gave a switch fluorescence ratio of 1.04. Sequence TACTTGCTCC has a switch fluorescence ratio of 1.57. Work on TACTTGGGCG yielded a switch fluorescence ratio of 1.08. In the case of TACTTGGTAT, the switch fluorescence ratio is reported as 0.989. With TACTTGTCA the switch fluorescence ratio was 1. TACTTTGTCC gave a switch fluorescence ratio of 1.03. For TAGAAAAAGT, the switch fluorescence ratio was 0.986. In the case of TAGAAACAAG, the switch fluorescence ratio is reported as 1.02. TAGAAAGG showed a switch fluorescence ratio of 0.978. TAGAAAGGTT gave a switch fluorescence ratio of 1.04. Sequence TAGAACCATC has a switch fluorescence ratio of 1.01. Work on TAGAACTGCA yielded a switch fluorescence ratio of 1.03. TAGAAGGGCG showed a switch fluorescence ratio of 1.01. In the case of TAGAATCA, the switch fluorescence ratio is reported as 0.947. With TAGAATCGTA the switch fluorescence ratio was 1.01. Work on TAGAATTCA yielded a switch fluorescence ratio of 1.01. TAGAATTCGT showed a switch fluorescence ratio of 0.999. TAGAATTGAC gave a switch fluorescence ratio of 1.06. TAGACAAGCG was tested, and the switch fluorescence ratio was 0.953. Work on TAGACAGCGC yielded a switch fluorescence ratio of 1.08. Sequence TAGACATCT has a switch fluorescence ratio of 1.01. For TAGACATTTA, the switch fluorescence ratio was 0.973. In the case of TAGACCGCGC, the switch fluorescence ratio is reported as 1.18. In the case of TAGACCTGTT, the switch fluorescence ratio is reported as 0.972. TAGACGAAGG was tested, and the switch fluorescence ratio was 1.01. Work on TAGACGGGAG yielded a switch fluorescence ratio of 0.942. TAGACGGTGC was tested, and the switch fluorescence ratio was 1.03. In the case of TAGACTTCTG, the switch fluorescence ratio is reported as 1.02. TAGAGAAAG showed a switch fluorescence ratio of 0.998. TAGAGATGCT was tested, and the switch fluorescence ratio was 0.982. Sequence TAGAGCACCA has a switch fluorescence ratio of 1.03. Work on TAGAGCGTAA yielded a switch fluorescence ratio of 1.11. For TAGAGCTTCG, the switch fluorescence ratio was 1.06. With TAGAGGCA the switch fluorescence ratio was 0.986. Sequence TAGAGGCAAC has a switch fluorescence ratio of 0.996. Work on TAGAGGCTT yielded a switch fluorescence ratio of 0.978. In the case of TAGAGGTGAA, the switch fluorescence ratio is reported as 1.01. With TAGAGTGTGG the switch fluorescence ratio was 0.999. TAGAGTTATA gave a switch fluorescence ratio of 0.998. Sequence TAGATCCGCT has a switch fluorescence ratio of 1.17. TAGATCCGGG showed a switch fluorescence ratio of 1.2. TAGATCGGCC gave a switch fluorescence ratio of 1.05. TAGATCTTCG was tested, and the switch fluorescence ratio was 1.05. Sequence TAGATGGGG has a switch fluorescence ratio of 1.02. For TAGATTAGTG, the switch fluorescence ratio was 0.977. Work on TAGATTGGGA yielded a switch fluorescence ratio of 1.02. TAGATTTTT was tested, and the switch fluorescence ratio was 1.01. TAGCAAAAGT gave a switch fluorescence ratio of 1.01. In the case of TAGCAAGGGC, the switch fluorescence ratio is reported as 1.26. With TAGCAGCAAA the switch fluorescence ratio was 1.26. Work on TAGCAGCACT yielded a switch fluorescence ratio of 1.17. In the case of TAGCAGCCTG, the switch fluorescence ratio is reported as 1.01. Sequence TAGCAGCTCA has a switch fluorescence ratio of 0.948. Work on TAGCAGGTTT yielded a switch fluorescence ratio of 1.01. With TAGCATAAGT the switch fluorescence ratio was 1.04. For TAGCATCGTC, the switch fluorescence ratio was 0.975. Work on TAGCATCTTC yielded a switch fluorescence ratio of 1.12. TAGCATGAGT was tested, and the switch fluorescence ratio was 0.968. Sequence TAGCATTGG has a switch fluorescence ratio of 2.01. For TAGCCAATGG, the switch fluorescence ratio was 1.07. TAGCCACTTG showed a switch fluorescence ratio of 1.17. TAGCCATAGC was tested, and the switch fluorescence ratio was 0.986. TAGCCCGTAT showed a switch fluorescence ratio of 1.1. TAGCCGTAGT showed a switch fluorescence ratio of 1.01. For TAGCCGTTGA, the switch fluorescence ratio was 1.08. With TAGCCTGAGA the switch fluorescence ratio was 0.992. Work on TAGCCTTGTG yielded a switch fluorescence ratio of 1. TAGCGAGTGA showed a switch fluorescence ratio of 1.03. In the case of TAGCGATGTG, the switch fluorescence ratio is reported as 1.05. TAGCGATTTT was tested, and the switch fluorescence ratio was 1. Work on TAGCGCATGC yielded a switch fluorescence ratio of 1.05. For TAGCGGGAAT, the switch fluorescence ratio was 0.977. TAGCGTAATG gave a switch fluorescence ratio of 0.98. Sequence TAGCGTATCC has a switch fluorescence ratio of 1.14. Work on TAGCGTGATT yielded a switch fluorescence ratio of 0.988. Sequence TAGCTAATCT has a switch fluorescence ratio of 1.02. With TAGCTATTAA the switch fluorescence ratio was 1.05. Work on TAGCTCCATC yielded a switch fluorescence ratio of 1.05. For TAGCTCGTC, the switch fluorescence ratio was 1.1. Sequence TAGCTGACTT has a switch fluorescence ratio of 0.986. With TAGCTGGAGT the switch fluorescence ratio was 0.98. TAGCTGTT gave a switch fluorescence ratio of 0.981. Work on TAGCTTCCG yielded a switch fluorescence ratio of 1.34. Sequence TAGCTTTGTC has a switch fluorescence ratio of 0.987. With TAGGAAGGTC the switch fluorescence ratio was 1.03. Work on TAGGACACCC yielded a switch fluorescence ratio of 1. With TAGGAGCGGG the switch fluorescence ratio was 1.14. TAGGAGGGCA gave a switch fluorescence ratio of 0.961. Work on TAGGAGTGGA yielded a switch fluorescence ratio of 1.07. In the case of TAGGATTTAA, the switch fluorescence ratio is reported as 1.01. Sequence TAGGCAAAGA has a switch fluorescence ratio of 1.06. With TAGGCACTGC the switch fluorescence ratio was 1.
